{"source": "PubChem BioAssay AID485360", "about": "(National Center for Advancing Translational Sciences (NCATS), 2010)", "note": "About 1,500 (0.65%) of roughly 230,000 compounds were called active. This list was built around the results that the source calls inconclusive (neither active nor inactive); the mix of calls is not that of the screen. The call rests on the fitted dose curve; in most records, active means well fitted inhibition curve with a large enough effect; inconclusive means small, poorly fitted or top-dose-only effect; inactive means no such curve, though single readings can be large or run the other way. Where the call is inconclusive, the potency comes from a doubtful curve fit. On the % scale 0 is the no-effect control and ±100 the full control effect; potency means the concentration at half of the fitted maximal effect; tags describe the fitted curve by direction and shape.", "data": [{"target": "Lethal(3)malignant brain tumor-like protein 1 (Homo sapiens) (UniProt Q9Y468)", "sequence (Q9Y468 whole entry, looked up)": "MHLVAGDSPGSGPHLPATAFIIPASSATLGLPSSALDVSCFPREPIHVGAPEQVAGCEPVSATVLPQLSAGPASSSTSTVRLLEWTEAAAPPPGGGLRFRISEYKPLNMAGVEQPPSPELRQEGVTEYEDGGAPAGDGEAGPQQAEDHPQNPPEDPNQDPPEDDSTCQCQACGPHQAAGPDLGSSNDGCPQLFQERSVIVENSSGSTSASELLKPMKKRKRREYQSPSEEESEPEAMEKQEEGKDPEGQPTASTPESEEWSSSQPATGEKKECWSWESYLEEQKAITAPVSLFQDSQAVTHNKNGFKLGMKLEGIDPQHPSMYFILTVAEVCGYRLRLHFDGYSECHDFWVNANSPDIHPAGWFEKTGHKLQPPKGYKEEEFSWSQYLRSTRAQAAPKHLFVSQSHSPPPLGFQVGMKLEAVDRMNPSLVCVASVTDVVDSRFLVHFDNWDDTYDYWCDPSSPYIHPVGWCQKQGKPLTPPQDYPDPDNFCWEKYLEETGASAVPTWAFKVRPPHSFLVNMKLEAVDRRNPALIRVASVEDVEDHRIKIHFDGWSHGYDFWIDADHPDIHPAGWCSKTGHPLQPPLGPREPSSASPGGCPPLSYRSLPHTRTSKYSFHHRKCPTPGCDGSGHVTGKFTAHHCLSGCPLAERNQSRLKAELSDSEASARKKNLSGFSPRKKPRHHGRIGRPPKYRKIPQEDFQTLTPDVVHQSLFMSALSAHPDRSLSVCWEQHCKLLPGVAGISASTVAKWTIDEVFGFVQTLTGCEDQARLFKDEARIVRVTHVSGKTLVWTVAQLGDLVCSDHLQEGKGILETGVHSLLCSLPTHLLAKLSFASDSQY", "test": "qHTS Assay for the Inhibitors of L3MBTL1; further: nearly all actives have a fitted effect of over 60% in size", "settings": "AlphaScreen L3MBTL1–H3K9me1 peptide binding; activity, negative = inhibition: at 57.1 µM (top of the series)", "method_in_brief": "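AlphaScreen assay: L3MBTL1 (50 nM final) was preincubated 30 min at room temperature with biotinylated H3(1-15)K9me1 peptide (75 nM final), then 30 min with library compounds; streptavidin donor and nickel chelate acceptor beads (10 ug/mL final) added, 30 min dark.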", "values": [{"compound": "CCOc1ccc(-n2nc(C(=O)N3CCN(CC)CC3)c3ccccc3c2=O)cc1", "Potency": "inconclusive: 8.91 µM [inhibitor, full curve]"}, {"compound": "CCOc1ccc(S(=O)(=O)N2CCCCC2)cc1NC(=O)C1CSC2(C)CCC(=O)N12", "note": "(stereo unspecified)", "Potency": "inactive"}, {"compound": "CCCC(CCC)=NNc1ccc(S(=O)(=O)Nc2ccccc2OC)cc1[N+](=O)[O-]", "Potency": "inconclusive: 31.6 µM [inhibitor, partial curve]"}, {"compound": "COc1ccc(NC(C)C(=O)Nc2cc(C(F)(F)F)ccc2N2CCOCC2)c(OC)c1", "note": "(stereo unspecified)", "Potency": "inconclusive: 25.1 µM [inhibitor, single point]"}, {"compound": "Cc1cc(/C=N/n2cnnc2)c(C)n1-c1ccc(Cl)cc1", "Potency": "inactive"}, {"compound": "COc1ccc(Nc2nc(N)nc(CN(C)C3CCCCC3)n2)cc1", "Potency": "inconclusive: 11.2 µM [inhibitor, partial curve]"}, {"compound": "COc1cccc(CNc2ccc3[nH]c(=O)[nH]c3c2)c1OCc1ccccc1Cl", "Potency": "inconclusive: 39.8 µM [inhibitor, single point]"}, {"compound": "N#Cc1nc(Cc2cccc3ccccc23)oc1N1CCOCC1", "Potency": "inconclusive: 14.1 µM [inhibitor, partial curve]"}, {"compound": "Cc1cc(-n2c(C)cc(C(=O)COc3ccc4ccc(=O)oc4c3)c2C)no1", "Potency": "inconclusive: 28.2 µM [inhibitor, single point]"}, {"compound": "O=C(Nc1cccc(N2C(=O)C=CC2=O)c1)c1cccs1", "Potency": "active: 28.2 µM"}, {"compound": "Cc1ccc2cccc(OCC(=O)c3cc(C)n(Cc4ccco4)c3C)c2n1", "Potency": "inconclusive: 3.16 µM [inhibitor, single point]"}, {"compound": "O=C(O)c1ccc2c(c1)C(=O)/C(=C/c1ccccc1)C2=O", "Potency": "active: 3.16 µM"}, {"compound": "O=P(c1ccccc1)(c1ccccc1)C(O)c1ccccn1", "note": "(stereo unspecified)", "Potency": "inactive"}, {"compound": "Cc1cccc(NCc2ccc(N(C)C)cc2)n1", "Potency": "inconclusive: 12.6 µM [inhibitor, partial curve]"}, {"compound": "CCN(CC)C(=S)SSC(=S)N(CC)CC", "activity, negative = inhibition": "inconclusive: -63.8% [inhibitor]"}, {"compound": "CC(=O)C1C(=O)CC(c2ccc(Cl)cc2)CC1=O", "note": "(stereo unspecified)", "Potency": "inactive"}, {"compound": "CC(C)CC(c1nnnn1Cc1ccc(F)cc1)N1CCC(C(N)=O)CC1", "note": "(stereo unspecified)", "Potency": "inconclusive: 0.398 µM [inhibitor, partial curve]"}, {"compound": "Cc1ccc(S(=O)(=O)c2nc(-c3ccccc3Cl)oc2N2CCN(C)CC2)cc1", "Potency": "inconclusive: 39.8 µM [inhibitor, single point]"}, {"compound": "CC1NC(=O)c2ccccc2-n2c1nc1cc(F)ccc1c2=O", "note": "(stereo unspecified)", "Potency": "inactive"}, {"compound": "COc1ccc(NCC(O)Cn2c(C)c(C)c3ccccc32)cc1", "note": "(stereo unspecified)", "Potency": "inconclusive: 20 µM [inhibitor, single point]"}, {"compound": "Cc1ccc(NNC(=S)Nc2ccc(C(C)C)cc2)c(C)c1", "Potency": "inconclusive: 39.8 µM [inhibitor, single point]"}, {"compound": "Nc1nc(=S)c2ncn(C3OC(CO)C(O)C3O)c2[nH]1", "note": "(stereo unspecified)", "Potency": "active: 25.1 µM"}, {"compound": "Cc1ncoc1C(=O)Nc1ncc([N+](=O)[O-])s1", "Potency": "inconclusive: 22.4 µM [inhibitor, partial curve]"}, {"compound": "C[n+]1ccc(C(=O)Nc2ccccc2Cl)cc1", "Potency": "inconclusive: 6.31 µM [inhibitor, single point]"}, {"compound": "Cc1ccc(CN2CCN(/N=C/c3ccco3)CC2)c(C)c1", "Potency": "inconclusive: 25.1 µM [inhibitor, single point]"}, {"compound": "COCCN(Cc1cc2cc3c(cc2nc1Cl)OCO3)C(=O)c1ccc(C)cc1", "Potency": "active: 28.2 µM"}, {"compound": "CC(=O)Nc1ccccc1OCC(=O)NCC(F)(F)F", "Potency": "inconclusive: 39.8 µM [inhibitor, partial curve, poor fit]"}, {"compound": "CCOC(=O)c1c(NC(=O)COC(=O)c2ccc(NC(=O)CC#N)cc2)sc(C(=O)NC)c1C", "Potency": "inconclusive: 35.5 µM [inhibitor, single point]"}, {"compound": "Cc1cc(-c2nc(C)c(C(=O)NNS(=O)(=O)c3ccccc3)s2)no1", "Potency": "inactive"}, {"compound": "O=C(O)c1ccc2[nH]c3c(c2c1)CSCC3", "Potency": "active: 31.6 µM"}, {"compound": "Cc1[nH]c2ccccc2c1N=Nc1cc(C(=O)O)cc(C(=O)O)c1", "Potency": "inconclusive: 28.2 µM [inhibitor, single point]"}, {"compound": "CCC(=O)NCCCNc1nc2c(C)cccc2cc1C#N", "Potency": "inactive"}, {"compound": "Clc1ccc2nc(-c3ccccn3)c(Nc3ccc4c(c3)OCO4)n2c1", "Potency": "inconclusive: 3.16 µM [inhibitor, full curve]"}, {"compound": "CC1(C)CC(=O)C2=C(C1)N=C1c3ccccc3C(=O)C1C2c1ccc(Cl)cc1", "note": "(stereo unspecified)", "Potency": "inconclusive: 5.62 µM [inhibitor, single point]"}, {"compound": "CCCNc1nc2c(c(=O)n(C)c(=O)n2C)n1Cc1cccc(C)c1", "Potency": "inactive"}, {"compound": "COCC(=O)NNC(=O)c1ccc(OC)cc1", "Potency": "inconclusive: 44.7 µM [inhibitor, partial curve, poor fit]"}, {"compound": "CC1CCCN(C(=O)Cn2nnc(-c3ccc(S(C)(=O)=O)cc3)n2)C1", "note": "(stereo unspecified)", "Potency": "inactive"}, {"compound": "Clc1ccc(-c2csc(=Nc3cccnc3)n2CCCn2ccnc2)cc1Cl", "Potency": "inconclusive: 31.6 µM [inhibitor, single point]"}, {"compound": "CCC(=O)N(Cc1ccco1)c1nc(-c2cc(OC)ccc2OC)cs1", "Potency": "inconclusive: 6.31 µM [inhibitor, single point]"}, {"compound": "Cc1nn(-c2cc(N3CCCCC3)ccc2N)c(=O)c2ccccc12", "Potency": "inactive"}, {"compound": "Cc1cc(C(=O)N/N=C/c2cc(Br)ccc2OC(=O)c2ccccc2)n[nH]1", "Potency": "inconclusive: 6.31 µM [inhibitor, single point]"}, {"compound": "COCCNC(=O)c1ccccc1NC(=O)c1cccc([N+](=O)[O-])c1C", "Potency": "inconclusive: 0.112 µM [inhibitor, full curve, poor fit]"}, {"compound": "CN(C)c1ccc(/C=C/c2ccc3c4ccccc4ccc3[n+]2-c2ccccc2)cc1", "Potency": "inconclusive: 0.891 µM [inhibitor, full curve, poor fit]"}, {"compound": "Cc1cc(C(=O)OCC(=O)NC2CCCC2)c2ccccc2n1", "Potency": "inactive"}, {"compound": "O=S1(=O)CCC(NC(=S)N2CCOCC2)C1", "note": "(stereo unspecified)", "Potency": "inconclusive: 7.08 µM [inhibitor, single point]"}, {"compound": "O=c1c2cnn(-c3ccc(F)cc3)c2ncn1Cc1ccccc1", "Potency": "inconclusive: 5.01 µM [inhibitor, single point]"}]}]}
